According to PubChem BioAssay AID1508649 (National Center for Advancing Translational Sciences (NCATS), 2021):
The whole screen tested about 43,000 compounds, of which about 830 (1.9%) were called active. This list was built around the results that the source calls inconclusive (neither active nor inactive); the mix of calls is not that of the screen. Rule for the calls: active = clear falling dose curves in both reporters; inconclusive = both reporters move, but less clearly or upward; inactive = either reporter flat; the % is the NLuc reporter signal. No potency is given beside an inconclusive call; the fits are too rough.

Test: Cell-based coincidence reporter assay to measure PMP22 gene transcription in S16 Pmp22-F2sN cells - Primary screen
Details: S16 Pmp22-F2sN Schwann cells (luciferase reporters placed in the Pmp22 gene), FLuc/NLuc coincidence luminescence, 24 h; measured here: NLuc reporter readout, at 57.5 µM (top of the series)
In short: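 S16(c9) Schwann cells with FLuc/NLuc coincidence reporter in the Pmp22 3' UTR; compounds pin-transferred, 24 h at 37C. Dual-luciferase read: FLuc first, then NLuc after Stop&Glo, each 10 min at room temperature.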
Potency is the fitted concentration of half-maximal effect; tags give direction and shape of the fitted curve.

SMILES	Potency
Cc1ccc(CN2C(=O)C(O)(CC(=O)c3ccc(C)cc3)c3ccccc32)cc1 (stereo unspecified)	active: 7.61 µM
CCOc1ccc(NC(=O)Cn2cc(S(=O)(=O)c3ccc(C)cc3)c(=O)c3cc(F)ccc32)cc1	inconclusive [phenotype inactive, partial curve]
O=C(CSc1nc2c([nH]c3ccccc32)c(=O)n1-c1ccccc1)NCc1ccc(F)cc1	inconclusive [phenotype inactive, partial curve]
Cc1cccc(N2CCN(C(=O)Cn3c(=O)c4cccn4c4ccc(F)cc43)CC2)c1C	inconclusive [phenotype inactive, full curve, poor fit]
CCOc1ccccc1CN(CCc1ccc2c(c1)OCO2)Cc1cccc(OC)c1OC	inconclusive [phenotype inactive, partial curve]
Cc1ccc(-c2nc(S(=O)(=O)c3ccc(C)cc3)c(SCC(=O)NC3CCCCC3)o2)cc1	inconclusive [phenotype inactive, single point]
CCc1ccc(NC(=O)CSc2nc3ccsc3c(=O)n2C(C)CC)cc1 (stereo unspecified)	inconclusive [phenotype inactive, partial curve]
Cc1ccc(NC(=O)Nc2nnc(SCC(=O)N3CCC(C)CC3)s2)cc1	inconclusive [phenotype inactive, single point]
CCN1CCN(c2cc(C)c3cc(NC(=O)/C=C/c4cccc(Cl)c4)ccc3n2)CC1	inconclusive [phenotype inactive, single point]
CCOc1ccc(N(CC)S(=O)(=O)N2CCCC(C(=O)NCc3ccc(SC)cc3)C2)cc1 (stereo unspecified)	inconclusive [phenotype inactive, single point]
COc1cccc2cc(-c3nc(Nc4cccc(C)c4C)sc3C)c(=O)oc12	inconclusive [phenotype inactive, single point]
COc1ccc(-n2cc(-c3ccc4c(c3)OCO4)n(CC(=O)Nc3cccc(C)c3C)c2=O)c(OC)c1	inactive
CCCCc1c(C)nc2c(-c3ccc(Cl)cc3)c(C)[nH]n2c1=O	active: 11.3 µM
COc1ccc(C(=O)c2sc3nc(-c4ccc(C)cc4)cc(C(F)(F)F)c3c2N)cc1	inactive
Cc1ccc(CNC(=O)CSc2ncc3c(n2)-c2ccc(Cl)cc2N(Cc2ccccc2)S3(=O)=O)cc1	inconclusive [phenotype inactive, partial curve]
COc1cc(OC)c(NC(=O)c2noc3c2CSc2ccccc2-3)cc1Cl	inactive
CCOc1ccccc1Nc1sc(C(=O)c2ccccc2)c(N)c1S(=O)(=O)c1ccc(C)cc1	active: 2.84 µM
Cc1ccccc1OCCSc1nc2ccc(NC(=O)c3cccs3)cc2s1	inconclusive [phenotype inactive, single point]
Cn1c(=O)cc(SCC(=O)N2CCN(c3ccccc3F)CC2)c2ccc(Cl)cc21	inconclusive [phenotype inactive, single point]
Cc1cccc(NC(=O)CCNS(=O)(=O)c2ccc3c(c2)CCN3C(=O)C2CC2)c1	inconclusive [phenotype inactive, single point]
Cc1ccc(NC(=O)C2CCN(c3nc(-c4ccc(C(C)C)cc4)no3)CC2)c(Cl)c1	inactive

SMILES	Potency
COc1ccc(CNC(=O)c2cc3sccc3n2Cc2ccc(C)cc2)cc1	inactive
O=C(NCCN1CCCCC1)c1ccc(Cn2c(SCc3ccccc3)nc3cccnc32)cc1	inactive
CCN1C(=O)c2ccccc2S(=O)(=O)c2ccc(C(=O)NCc3ccc(OC)cc3)cc21	inactive
COCc1c(Br)c(C)nc2sc3c(=O)n(-c4cccc(Br)c4)nnc3c12	inactive
Cn1c(C(=O)N2CCC(C(=O)NCCc3ccccc3)CC2)cc2sccc21	inactive
O=C(NCC(c1cccnc1)N1CCN(Cc2ccccc2)CC1)C(=O)Nc1cccc(Cl)c1 (stereo unspecified)	inconclusive [phenotype inactive, single point]
COc1cccc(NC(=O)c2cc3c(-c4ccc(Cl)cc4)nn(C)c3s2)c1	inactive
Cc1cccc(N2CCN(c3ncnc4c3nc3n4CCCCC3)CC2C)c1 (stereo unspecified)	active: 4.39 µM
CCOc1ccc(-c2nc(CSCC(=O)NCc3ccc(C)cc3)c(C)o2)cc1	inactive
NC(=O)CSc1nc2c(oc3ccccc32)c(=O)n1Cc1ccccc1	inactive
O=C(CN(c1ccc(Cl)c(C(F)(F)F)c1)S(=O)(=O)c1ccccc1)Nc1cccnc1	inconclusive [phenotype inactive, single point]
COc1ccc(C2=CC(c3ccccc3Cl)n3nc(-c4ccc(C)cc4)nc3N2)cc1 (stereo unspecified)	inconclusive [phenotype inactive, partial curve, poor fit]
CCOC(=O)c1ccc(NC(=O)CC2Nc3cccc4cccc(c34)NC2=O)cc1 (stereo unspecified)	inconclusive [phenotype inactive, partial curve, poor fit]
CC(C)CCOc1ccc(Cn2c(=O)sc3ccccc32)cc1	inactive
COc1ccc2c(c1)CCc1c(C(=O)Nc3cnn(Cc4ccc(Cl)cc4Cl)c3)noc1-2	inactive
O=C(CCS(=O)(=O)c1nc(-c2cccs2)cc(C(F)(F)F)n1)Nc1ccc(Br)cc1	active: 6.45 µM
Cc1cc2cc(CCNS(=O)(=O)c3ccc(Br)cc3)c(=O)[nH]c2cc1C	inconclusive [phenotype inactive, single point]
CCOc1ccc(NC(=O)CSc2oc(-c3cccs3)nc2S(=O)(=O)c2ccc(C)cc2)cc1	inconclusive [phenotype inactive, partial curve, poor fit]
O=C(Nc1c(C(=O)c2ccc(Cl)cc2)oc2ccccc12)c1cc(=O)c2ccccc2o1	inactive
CCCSc1ncc(Cl)c(C(=O)Nc2ccc(S(=O)(=O)N3CCC(C)CC3)cc2)n1	inconclusive [phenotype inactive, partial curve, poor fit]
